According to the supplement of paper PMC7826260:
The other results are listed elsewhere or left out. Each Rep nickase domain was tested in vitro on the same pool of single strands (1 h at 37 °C, 3 µM enzyme); the outer parts of the 90-letter strands are left off. Numbers give uncut DNA relative to the enzyme-free pool, as log2; the lower, the more was cut; hits are not called. Because reads are shares of a total, they shift together, so uncut sequences can rise above 0 when many others are cut.

Columns and labels:
Test in all cases: uncleaved DNA left, log2 of reads against the no-enzyme library (log2 ratio); higher = less cleavage (more negative = more Rep cleavage of the k-mer); sequences stand for … in CTCGTCCG…ACCGGAGA
[1] = system: T1, Rep nickase domain of Muscovy duck circovirus
T1 sequence (residues 1-111, tag not shown): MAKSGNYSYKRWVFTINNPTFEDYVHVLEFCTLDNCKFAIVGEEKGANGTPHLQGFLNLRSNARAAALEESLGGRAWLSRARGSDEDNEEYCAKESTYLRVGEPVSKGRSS
Experimental: (§1)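 A pool of 90-nt single-stranded DNAs with seven random bases just before the constant AC of the nick site (name = the seven bases) was cut by 3 µM recombinant His6-SUMO-tagged Rep nickase domain (300 nM DNA, 50 mM HEPES pH 8.0, 50 mM NaCl, 1 mM MnCl2, 1 h, 37 °C, three replicates). Uncut DNA was amplified and sequenced.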

[2] = system: T2, Rep nickase domain of banana bunchy top virus
T2 sequence (residues 1-94, tag not shown): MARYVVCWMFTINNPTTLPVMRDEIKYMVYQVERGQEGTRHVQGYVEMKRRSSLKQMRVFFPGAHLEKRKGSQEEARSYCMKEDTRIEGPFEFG
Experimental: as §1

[3] = system: T3, Rep nickase domain of cabbage leaf curl virus
T3 sequence (residues 1-116, tag not shown): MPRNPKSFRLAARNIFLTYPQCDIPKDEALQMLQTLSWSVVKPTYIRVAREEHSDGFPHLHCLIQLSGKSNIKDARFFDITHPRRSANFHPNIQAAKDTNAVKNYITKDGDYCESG
Experimental: as §1

[4] = system: T4, Rep nickase domain of chickpea chlorotic dwarf virus
T4 sequence (residues 1-124, tag not shown): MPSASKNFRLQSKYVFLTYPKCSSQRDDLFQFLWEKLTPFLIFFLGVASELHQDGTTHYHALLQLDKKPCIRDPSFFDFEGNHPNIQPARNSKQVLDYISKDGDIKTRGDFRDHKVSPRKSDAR
Experimental: as §1

[5] = system: T5, Rep nickase domain of faba bean necrotic yellows virus
T5 sequence (residues 1-98, tag not shown): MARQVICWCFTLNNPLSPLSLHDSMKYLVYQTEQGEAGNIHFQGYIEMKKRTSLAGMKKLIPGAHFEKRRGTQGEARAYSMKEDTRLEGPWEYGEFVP
Experimental: as §1

[6] = system: T6, Rep nickase domain of maize striate mosaic virus
T6 sequence (residues 1-117, tag not shown): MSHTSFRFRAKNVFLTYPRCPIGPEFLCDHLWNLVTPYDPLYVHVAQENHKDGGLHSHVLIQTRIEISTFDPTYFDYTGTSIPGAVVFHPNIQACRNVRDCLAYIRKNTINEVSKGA
Experimental: as §1

[7] = system: T7, Rep nickase domain of porcine circovirus 2
T7 sequence (residues 2-116, tag not shown): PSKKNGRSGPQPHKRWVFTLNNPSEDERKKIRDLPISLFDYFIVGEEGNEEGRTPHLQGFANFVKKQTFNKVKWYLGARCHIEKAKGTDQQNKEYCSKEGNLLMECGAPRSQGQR
Experimental: as §1

[8] = system: T8, Rep nickase domain of tomato golden mosaic virus
T8 sequence (residues 1-124, tag not shown): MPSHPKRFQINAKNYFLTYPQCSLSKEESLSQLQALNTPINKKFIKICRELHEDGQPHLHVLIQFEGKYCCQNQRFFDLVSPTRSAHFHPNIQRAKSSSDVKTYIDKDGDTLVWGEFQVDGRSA
Experimental: as §1

[9] = system: T9, Rep nickase domain of tomato yellow leaf curl virus
T9 sequence (residues 1-136, tag not shown): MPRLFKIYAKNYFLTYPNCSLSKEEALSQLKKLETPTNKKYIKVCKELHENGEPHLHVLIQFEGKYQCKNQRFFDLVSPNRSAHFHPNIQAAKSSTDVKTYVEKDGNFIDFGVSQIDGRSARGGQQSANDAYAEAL
Experimental: as §1

[10] = system: T10, Rep nickase domain of wheat dwarf virus
T10 sequence (residues 1-137, tag not shown): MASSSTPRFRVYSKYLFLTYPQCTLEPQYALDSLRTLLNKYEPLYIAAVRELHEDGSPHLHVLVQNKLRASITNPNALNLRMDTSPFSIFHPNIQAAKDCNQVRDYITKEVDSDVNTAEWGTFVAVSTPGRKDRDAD
Experimental: as §1

| Sequence | uncleaved DNA left (log2) [1] | uncleaved DNA left (log2) [2] | uncleaved DNA left (log2) [3] | uncleaved DNA left (log2) [4] | uncleaved DNA left (log2) [5] | uncleaved DNA left (log2) [6] | uncleaved DNA left (log2) [7] | uncleaved DNA left (log2) [8] | uncleaved DNA left (log2) [9] | uncleaved DNA left (log2) [10] |
| --- | --- | --- | --- | --- | --- | --- | --- | --- | --- | --- |
| TTGAGTC | 0.00861 | 0.0391 | -0.177 | -0.275 | -0.0549 | -1.04 | -0.0583 | -0.0773 | -0.0712 | -0.0265 |
| CGGTCAC | -0.0347 | -0.00463 | 0.27 | 0.573 | -0.0159 | 0.604 | 0.0108 | -0.284 | -0.0367 | 0.0952 |
| TTGACGG | -0.00606 | 0.0199 | 0.497 | 1.36 | -0.00085 | 1.84 | 0.22 | 0.0921 | 0.0599 | 0.161 |
| ACTTCAC | 0.0175 | -0.0705 | -0.158 | -0.438 | -0.0488 | -0.936 | 0.169 | 0.122 | -0.0308 | 0.0495 |
| CTTTAGG | 0.15 | 0.0304 | 0.408 | 1.14 | 0.0152 | 1.1 | 0.103 | 0.0884 | -0.00882 | 0.129 |
| TCCGTCC | -0.0676 | -0.0304 | 0.287 | 0.0768 | -0.0248 | 0.152 | -0.0154 | -0.112 | -0.0276 | -0.00648 |
| GTGCGTA | 0.0294 | 0.161 | -0.0683 | 0.202 | -0.109 | -0.333 | 0.112 | 0.0237 | 0.0625 | 0.0171 |
| AGAGGAT | 0.00298 | -0.0542 | 0.218 | 1.67 | 0.0219 | 1.89 | 0.176 | 0.126 | -0.13 | 0.0782 |
| ATAGCAA | -0.105 | 0.0885 | -0.167 | -0.35 | 0.081 | -1.05 | 0.0365 | -0.036 | 0.0483 | 0.000868 |
| AAAAGCC | 0.063 | 0.106 | -0.442 | -0.815 | 0.136 | -0.957 | 0.16 | 0.0996 | 0.102 | -0.0209 |
| GGGAGGA | 0.0421 | 0.0811 | 0.907 | 1.93 | -0.085 | 2.23 | 0.167 | 0.0133 | -0.00099 | 0.112 |
| TCAGAGC | 0.0181 | 0.025 | -0.222 | -0.354 | 0.00632 | -1.05 | 0.0992 | -0.0384 | 0.0499 | -0.0511 |
| TTATCAG | 0.0231 | 0.143 | -0.676 | -0.669 | -0.0135 | -1.23 | 0.179 | -0.00343 | 0.0965 | 0.0297 |
| ACCACTA | -0.0669 | 0.0277 | -0.245 | -1.45 | -0.18 | -0.866 | -0.206 | -0.0326 | -0.0629 | -0.104 |
| CTTCCAG | -0.0167 | 0.000317 | -0.608 | -0.558 | -0.0866 | -1 | 0.0208 | -0.0908 | 0.0505 | -0.0494 |
| TGCTCAT | 0.00879 | 0.123 | 0.253 | -0.0593 | 0.211 | -0.0129 | -0.41 | -0.124 | 0.119 | 0.148 |
| CTACCCT | -0.206 | -0.134 | -0.259 | -2.46 | -0.0557 | -0.487 | -1.18 | -0.131 | -0.0824 | -0.223 |
| ACTTGAC | -0.0882 | -0.0644 | -0.281 | -0.0423 | 0.0478 | -0.641 | 0.134 | -0.0787 | -0.0908 | -0.027 |
| AGAGTCG | 0.044 | -0.00235 | -0.673 | -0.436 | 0.145 | -0.833 | 0.177 | 0.103 | 0.00515 | 0.0398 |
| ACTCGGG | -0.0353 | 0.0585 | -0.49 | -0.21 | 0.138 | -1.05 | 0.214 | 0.046 | 0.194 | -0.0465 |
| CAACCTC | -0.114 | 0.0169 | -0.0689 | -0.439 | -0.0882 | 0.609 | -0.275 | -0.0246 | -0.135 | -0.00581 |
| AATCAGC | -0.00423 | 0.0157 | -0.43 | -0.591 | -0.0226 | -1.07 | 0.0822 | -0.00597 | -0.0614 | -0.0508 |
| GCCCGCT | -0.118 | -0.0882 | -0.152 | -0.334 | -0.0752 | -0.658 | -0.109 | -0.063 | -0.101 | 0.0182 |
| CGCTTGC | -0.138 | -0.106 | -0.742 | -0.536 | -0.064 | -1.02 | 0.058 | -0.104 | -0.159 | -0.166 |
| CAGGCTA | -0.0315 | -0.0561 | 0.0306 | -0.543 | -0.00696 | 0.304 | -0.147 | 0.00373 | -0.133 | -0.113 |
| CGAGGCT | -0.0467 | -0.108 | 9.68e-05 | -0.392 | -0.125 | -0.232 | -0.149 | -0.00602 | 0.0116 | -0.0613 |
| AAATACC | -0.0672 | -0.137 | -2.77 | -2.8 | -0.127 | -0.959 | -0.827 | -0.44 | -0.14 | -0.346 |
| TAGGATC | 0.236 | 0.113 | 0.404 | 1.25 | 0.164 | 1.43 | 0.189 | 0.141 | 0.0975 | 0.129 |
| CAATTGT | -0.819 | -0.149 | -3.87 | -3.34 | -0.113 | -2.93 | -3.75 | -3.21 | -0.0592 | -3.24 |
